Measured values published in PMC10892871 (Viruses, 2024).
Where two headings read alike, the source gives them in different places.

System: wild type B.1 SARS-CoV-2 strain
Assay type: cell-based

O=c1nc(NO)ccn1[C@@H]1O[C@H](CO)[C@@H](O)[C@H]1O [EIDD-1931]
IC50 Fold Reduction (plus NRM 0.025 μM): 1 fold
IC50 Fold Reduction (plus NRM 0.05 μM): 11 fold
IC50 Fold Reduction (plus NRM 0.1 μM): 88 fold
IC50 Fold Reduction (plus RDV 0.015 μM): 2 fold
IC50 Fold Reduction (plus RDV 0.03 μM): 26 fold
IC50 Fold Reduction (plus RDV 0.06 μM): > 26 fold

CC(C)(C)[C@H](NC(=O)C(F)(F)F)C(=O)N1C[C@H]2[C@@H]([C@H]1C(=O)N[C@H](C#N)C[C@@H]1CCNC1=O)C2(C)C [NRM, nirmatrelvir]
IC50 Fold Reduction (plus RDV 0.015 μM): 1 fold
IC50 Fold Reduction (plus RDV 0.03 μM): 8 fold
IC50 Fold Reduction (plus RDV 0.06 μM): 33 fold
